The list shows a part of the results.
Legend:
HSkMC = human skeletal muscle cells; assay: cytotoxicity call (relative viability < 0.9); details: 10 µM
HepG2 = assay: cytotoxicity call (relative viability < 0.9); details: 10 µM
S. aureus RN4220 = assay: growth inhibition call (relative growth <= 0.2); details: 50 µM

Compound	cytotoxicity call (HSkMC)	cytotoxicity call (HepG2)	growth inhibition call (S. aureus RN4220)
COc1ccc(NC(=O)N(C)C[C@@H]2OCCCC[C@@H](C)Oc3ccc(NS(=O)(=O)c4cccs4)cc3C(=O)N([C@H](C)CO)C[C@@H]2C)cc1	inactive	inactive	inactive
Nn1c(-c2ccncc2)nncc1=O	inactive	inactive	inactive
C[C@H]1CCCCO[C@@H](CN(C)C(=O)NC2CCCCC2)[C@@H](C)CN([C@@H](C)CO)C(=O)c2cc(NC(=O)Nc3cccc4ccccc34)ccc2O1	inactive	inactive	inactive
C[C@@H]1CN([C@@H](C)CO)C(=O)c2cc(-c3cccnc3)cnc2O[C@@H]1CN(C)C(=O)Nc1ccc2c(c1)OCO2	inactive	inactive	inactive
C[C@H](CO)N1C[C@H](C)[C@H](CN(C)C(=O)Nc2ccc(F)cc2)OCCCC[C@H](C)Oc2ccc(NC(=O)C3CCCC3)cc2C1=O	inactive	inactive	inactive
Nc1nc(=O)c2nc(Br)n([C@@H]3O[C@@H]4COP(=O)(O)O[C@H]4[C@H]3O)c2[nH]1	inactive	inactive	inactive
C=C1CCOC(=O)[C@@H](NC(C)=O)CCCN(O)C(=O)/C=C(\C)CCOC(=O)[C@H](NC(C)=O)CCCN(O)C(=O)/C=C(\C)CCOC(=O)[C@@H](NC(C)=O)CCCN(O)C(=O)C1	inactive	inactive	inactive
C[C@@H]1CN([C@@H](C)CO)S(=O)(=O)c2ccc(C#CC3(O)CCCC3)cc2O[C@H]1CN(C)C(=O)Nc1cccc(F)c1	inactive	inactive	inactive
C[C@@H]1CN([C@@H](C)CO)C(=O)c2cccc(NC(=O)c3ccc(-c4nccs4)cc3)c2O[C@@H]1CN(C)C(=O)Nc1ccc(F)cc1	inactive	inactive	inactive
Cc1ccc(S(=O)(=O)N(C)C[C@@H]2Oc3cc(C#Cc4ccncc4)ccc3S(=O)(=O)N([C@@H](C)CO)C[C@H]2C)cc1	inactive	active	inactive
C[C@H](CO)N1C[C@H](C)[C@H](CN(C)S(=O)(=O)c2ccc(Cl)cc2)OCCCC[C@H](C)Oc2ccc(NC(=O)NC3CCCCC3)cc2C1=O	inactive	inactive	inactive
COc1ccc(S(=O)(=O)Nc2ccc3c(c2)C(=O)N([C@@H](C)CO)C[C@@H](C)[C@H](CN(C)C(=O)CCC(F)(F)F)OCCCC[C@H](C)O3)cc1	inactive	inactive	inactive
C[C@H](CO)N1C[C@H](C)[C@H](CN(C)C(=O)Cc2ccccc2)OCCCC[C@H](C)Oc2ccc(NC(=O)Nc3ccc(C(F)(F)F)cc3)cc2C1=O	inactive	inactive	inactive
NC(=O)NCC#Cc1ccc2c(c1)[C@]1(C(=O)N2)[C@H](c2ccccc2OCCO)N2[C@H](c3ccccc3)[C@H](c3ccccc3)OC(=O)[C@H]2[C@@H]1C(=O)N1CCCCCCC1	inactive	inactive	inactive
C[C@H]1CCCCO[C@H](CN(C)S(=O)(=O)c2ccc(Cl)cc2)[C@@H](C)CN([C@@H](C)CO)C(=O)c2cc(NS(=O)(=O)c3ccccc3)ccc2O1	inactive	inactive	inactive
C[C@@H]1CN([C@@H](C)CO)C(=O)c2cccc(NS(=O)(=O)c3cccs3)c2O[C@H]1CN(C)C(=O)Nc1cccc2ccccc12	inactive	inactive	inactive
C[C@H]1CCCCO[C@@H](CN(C)C(=O)Nc2ccc3c(c2)OCO3)[C@@H](C)CN([C@@H](C)CO)C(=O)c2cc(NC(=O)c3ccncc3)ccc2O1	inactive	inactive	inactive
Nc1ccc(S(=O)(=O)c2ccc(N)cc2)cc1	inactive	inactive	inactive
CC(C)NC(=O)Nc1ccc2c(c1)C(=O)N([C@@H](C)CO)C[C@H](C)[C@@H](CN(C)Cc1ccc(Oc3ccccc3)cc1)O2	inactive	inactive	inactive
C[C@@H]1CCCCO[C@@H](CN(C)Cc2ccc(Cl)c(Cl)c2)[C@@H](C)CN([C@H](C)CO)C(=O)c2cc(NC(=O)Nc3ccc4c(c3)OCO4)ccc2O1	inactive	inactive	inactive
C[C@H]1CCCCO[C@@H](CN(C)C)[C@@H](C)CN([C@@H](C)CO)C(=O)c2cc(NC(=O)CCCN(C)C)ccc2O1	inactive	inactive	inactive
O=C(C[C@H]1CC[C@@H]2[C@H](COC[C@@H](O)CN2Cc2cc(F)ccc2F)O1)N[C@H]1CCN(Cc2ccccc2)C1	inactive	active	inactive
CCOc1ccccc1OCCNC(C)Cc1ccc(OC)c(S(N)(=O)=O)c1.Cl (stereo not drawn)	inactive	inactive	inactive
C[C@H](CO)N1C[C@H](C)[C@@H](CN(C)C(=O)C2CCCCC2)Oc2cc(-c3cncnc3)ccc2S1(=O)=O	inactive	inactive	inactive
CC(C)NC(=O)N(C)C[C@H]1Oc2ccc(NC(=O)Cn3cnnn3)cc2C(=O)N([C@@H](C)CO)C[C@@H]1C	inactive	inactive	inactive
COc1ccc(NC(=O)N(C)C[C@H]2Oc3ccc(NC(=O)C4CC4)cc3C(=O)N([C@@H](C)CO)C[C@H]2C)cc1	inactive	inactive	inactive
